Out of some 340,000 compounds screened, about 12,000 (3.5%) were called active. The shares of active, inactive and inconclusive entries below differ from those in the screen. The call rests on the fitted dose curve; in most records, active means well fitted inhibition curve with a large enough effect; inconclusive means small, poorly fitted or top-dose-only effect, or another doubt; inactive means no such curve, though single readings can be large or run the other way. No potency is given beside an inconclusive call; the fits are too rough.
Experiment: qHTS Assay for Inhibitors of Hepatitis C Virus (HCV)
Settings: Huh7.5.1 HCVcc-Cre (HCVcc is cell-culture hepatitis C virus) infection, luciferase reporter, 44 h; series mostly up to 41.8 µM
Outline: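 Infectious HCVcc-Cre (~0.5 moi) was added to cells just after compound, with cells seeded 4 h earlier at 1,000 per well. Luciferase activity after 44 h culture reported infection; substrate was incubated 15 min at room temperature before reading.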
For `CN(CCO)C(=O)c1cccc2c1-c1ccccc1C2=O`, the Potency was “inactive”. With `COC(=O)c1cc(C(=O)N2CCN(c3cccc(C)c3C)CC2)cc([N+](=O)[O-])c1` the Potency was inconclusive [inhibitor, partial curve]. With `Cc1cc(S(N)(=O)=O)c(N)c(S(N)(=O)=O)c1` the Potency was “inactive”. In the case of `Cc1[nH]n(-c2ccccc2)c(=O)c1-c1ccc(Cl)cc1`, the Potency is reported as “inactive”. For `Cc1cc(-c2cc(C(=O)NCc3ccccc3)on2)nc(NC2CCCC2)n1`, the Potency was inconclusive [inhibitor, partial curve]. With `Clc1ccccc1OCc1nc(-c2ccncc2)no1` the Potency was inconclusive [inhibitor, partial curve]. With `Cc1nc(NC(=O)CN2CCCCC2)sc1C(=O)N(C)C` the Potency was “inactive”. In the case of `O=C(CN1CCC(n2nnc3cc(F)ccc32)CC1)NC1CC1`, the Potency is reported as “inactive”. In the case of `CSc1nnc2n(-c3ccccc3)c(=O)c3c4c(sc3n12)CCC4`, the Potency is reported as inconclusive [inhibitor, single point]. For `Cc1ccc2c(c1)NC(=O)[C@@]1(C)[C@@H](c3ccccc3)[C@H]3COc4ccccc4[C@@H]3N1C2=O`, the Potency was inconclusive [inhibitor, single point]. With `Cc1ccc(CNC(=O)c2nnn(CC(=O)Nc3cc(C)cc(C)c3)c2N)cc1` the Potency was “inactive”. In the case of `CCc1ccc(C(=O)COC(=O)c2cnccn2)cc1`, the Potency is reported as inconclusive [inhibitor, single point]. With `Cc1nc(SCC(=O)N2CCCCCC2)c2c(=O)n(C)c(=O)n(CC(C)C)c2n1` the Potency was inconclusive [inhibitor, single point]. In the case of `CCOC(=O)C1(CCOc2ccccc2)CCN(Cc2ccc(O)c(Cl)c2)CC1`, the Potency is reported as inconclusive [inhibitor, single point]. With `Cc1cc(N/N=C\c2ccc(Br)cc2)nc(-n2nc(C)cc2C)n1` the Potency was inconclusive [inhibitor, full curve]. In the case of `CCOc1ccc(CCNC(=O)c2ccc3nc(CC)c(CC)nc3c2)cc1`, the Potency is reported as inconclusive [inhibitor, full curve]. With `Clc1ccc2c(c1)C1CC2CCN1Cc1ccccc1` (stereo not drawn) the Potency was inconclusive [inhibitor, full curve]. With `O=C(Nc1ncc(Cc2cccc(C(F)(F)F)c2)s1)c1ccc(-c2cccc([N+](=O)[O-])c2)o1` the Potency was inconclusive [inhibitor, full curve]. For `CC(C)CCNC(=O)c1cc(-c2cccs2)nc2ccccc12`, the Potency was inconclusive [inhibitor, single point]. In the case of `Cc1ccc2c(Cl)cc(Cl)c(OCC(=O)NC(C)(C)C)c2n1`, the Potency is reported as active: 22.4 µM. For `O=C(Nc1cccc(S(=O)(=O)N2CCCCC2)c1)C1=NN(c2ccccc2)C(=O)CC1`, the Potency was “inactive”. For `CC(Nc1ccc(Br)cc1)C(=O)N/N=C/c1ccccc1OCc1ccccc1` (stereo not drawn), the Potency was “inactive”. For `Cc1cccc(C)c1NC(=S)NCCSc1ccc(Cl)cc1`, the Potency was active: 10 µM. With `Cc1ccc(C)c(/C=C/C(=O)c2ccccc(=O)c2O)c1` the Potency was inconclusive [inhibitor, full curve]. For `CCCCNc1c(-c2ccc(OC)c(SC(C)CC)c2)nc2ccc(C)cn12` (stereo not drawn), the Potency was inconclusive [inhibitor, single point]. With `CN(C)S(=O)(=O)c1cccc(NC(=O)c2cc(-c3cccs3)nc3ccccc23)c1` the Potency was inconclusive [inhibitor, single point]. For `Fc1ccccc1CSc1nnc(-c2cnccn2)n1Cc1ccco1`, the Potency was “inactive”. With `COc1cc(NS(=O)(=O)c2ccc(NC(=S)NC(=O)c3sc4cc(F)ccc4c3Cl)cc2)nc(OC)n1` the Potency was “inactive”. For `C=CCNCCOc1c(C)cc(C)cc1Cl`, the Potency was “inactive”. In the case of `O=c1c(Cc2ccc(Cl)cc2Cl)c(O)ccn1CCCN1CCOCC1`, the Potency is reported as “inactive”. In the case of `COC(=O)/C(=C1/Oc2cc(C)oc(=O)c2S1)C(F)(F)F`, the Potency is reported as active: 10 µM. In the case of `CCCn1c(N2CCN(C(=O)Nc3ccc(Cl)cc3)CC2)nc2ccccc21`, the Potency is reported as inconclusive [inhibitor, single point]. For `O=C(COc1ccc(-c2ccccc2)cc1)N1CCN(S(=O)(=O)Cc2ccccc2)CC1`, the Potency was inconclusive [inhibitor, partial curve, poor fit]. For `CCN(CC(=O)Nc1ccc2c(c1)OCCO2)C(=O)c1ccc(C)c(S(=O)(=O)N2CCOCC2)c1`, the Potency was “inactive”. With `O=C(CN1CCOCC1)Nc1cc(C(F)(F)F)ccc1Cl` the Potency was “inactive”. With `O=C(Cc1cccc2ccccc12)NCCc1ccccc1` the Potency was “inactive”. With `O=C(CSc1ncccn1)N/N=C/c1ccc(OC2CSC2)cc1` the Potency was “inactive”. With `CC(=O)c1ccc(NC(=O)Nc2cccc3ccccc23)cc1` the Potency was “inactive”. For `COc1ccc(-c2nc(NC(=O)CCNC(=O)c3ccco3)sc2C)cc1`, the Potency was inconclusive [inhibitor, partial curve]. With `CN(C)CCCNc1ncnc2c1cnn2Cc1ccccc1Cl` the Potency was inconclusive [inhibitor, single point]. With `C=C1SC(=Nc2ccccc2Cl)N(C(=O)c2sc3ccccc3c2Cl)C1(C)C` the Potency was “inactive”. In the case of `O=C(N/N=C/c1ccc2cccc(OCc3ccccc3)c2n1)c1ccc(Br)cc1`, the Potency is reported as inconclusive [inhibitor, partial curve]. In the case of `CC1Sc2ccc(S(=O)(=O)CCC(=O)N3CCN(c4cccc(Cl)c4)CC3)cc2NC1=O` (stereo not drawn), the Potency is reported as inconclusive [inhibitor, single point]. With `O=C(/C=C/c1c(Cl)nc2ccccn12)N1CCN(c2ccccc2F)CC1` the Potency was inconclusive [inhibitor, partial curve]. For `Cc1ccc(S(=O)(=O)N2CCN(c3ccccc3)CC2)cc1C(=O)NC1CCCCC1`, the Potency was inconclusive [inhibitor, partial curve]. For `CCCc1cc(NC(=O)COC(=O)c2ccc(O)cc2O)n(-c2ccccc2)n1`, the Potency was active: 11.2 µM. For `CCCC[C@@H](CN[C@H](C)CNC)NCC1CCC(C(C)(C)C)CC1` (stereo partly drawn), the Potency was inconclusive [inhibitor, partial curve]. For `CC(/C=N/NC(=O)Cc1cccs1)=C\c1ccco1`, the Potency was inconclusive [inhibitor, single point]. With `COc1ccc(-n2nnnc2SCC(=O)N2CCCc3ccccc32)cc1OC` the Potency was “inactive”. For `COc1ccc([N+](=O)[O-])cc1NC(=O)CSc1nc(C)cc(C)n1`, the Potency was inconclusive [inhibitor, full curve]. For `Cc1ccc(NC(=O)c2ccc(S(=O)(=O)NCc3ccco3)cc2)cc1`, the Potency was “inactive”. For `FC(F)Oc1ccc(NC(=S)NC2CCCCCCC2)cc1`, the Potency was inconclusive [inhibitor, single point]. With `N=c1c(C(=O)NCC2CCCO2)cc2c(=O)n3ccccc3nc2n1Cc1ccccc1Cl` (stereo not drawn) the Potency was inconclusive [inhibitor, single point]. For `COc1ccc(NC(C)=O)cc1S(=O)(=O)NC(Cc1ccccc1)C(=O)NCc1ccccc1C` (stereo not drawn), the Potency was “inactive”. In the case of `O=C(Nc1ccon1)c1csc2ccccc12`, the Potency is reported as “inactive”. With `CC(NC(=O)Nc1cccc(F)c1)c1ccc2c(c1)OCO2` (stereo not drawn) the Potency was inconclusive [inhibitor, single point]. With `CCN(CC)c1nc(Nc2ccccc2)nc(Oc2ccc(C(=O)OC)cc2)n1` the Potency was inconclusive [inhibitor, partial curve]. In the case of `N=c1n(CCc2ccccc2)c2ccccc2n1Cc1ccccc1F`, the Potency is reported as active: 12.6 µM. For `O=c1c2c3c(sc2n2cnnc2n1CCc1ccccc1)CCCC3`, the Potency was inconclusive [inhibitor, single point]. In the case of `CC(C)Cn1c(N)c(C(=O)COC(=O)c2ccccc2C(=O)c2ccccc2)c(=O)n(C)c1=O`, the Potency is reported as active: 10 µM. For `O=C(Nc1cccc(-c2cccc(Cl)c2)c1)C1CCN(Cc2ccccn2)CC1`, the Potency was active: 10 µM. In the case of `COC(=O)c1nn(-c2ccccc2)c(Cl)c1/C=N/OCc1ccc(C)cc1`, the Potency is reported as inconclusive [inhibitor, single point]. With `O=C(CSc1cn(CCNC(=O)c2ccccc2)c2ccccc12)NCC1CCCO1` (stereo not drawn) the Potency was inconclusive [inhibitor, single point]. In the case of `Oc1ccc(Br)cc1-c1cc(-c2ccccc2F)[nH]n1`, the Potency is reported as inconclusive [inhibitor, single point]. In the case of `O=C(Nc1cccc2c1CCCC2)c1ccc(Cl)c([N+](=O)[O-])c1`, the Potency is reported as inconclusive [inhibitor, partial curve, poor fit]. With `CCOc1ccc(NC(=O)c2ccc(NC(=S)NC3CC3)cc2)cc1` the Potency was inconclusive [inhibitor, full curve, poor fit]. In the case of `CCOC(=O)c1ccccc1NC(=O)Cn1c(=O)n(Cc2ccccc2)c(=O)c2c(C)c(C)sc21`, the Potency is reported as inconclusive [inhibitor, partial curve]. With `Cc1ccc(Nc2nnc(SC/C(O)=C(\C#N)c3nc4ccccc4[nH]3)s2)c(C)c1` the Potency was inconclusive [inhibitor, full curve, poor fit]. In the case of `COc1cccc(NC(=S)N(CCN(C)C)C(C)c2ccco2)c1` (stereo not drawn), the Potency is reported as inconclusive [inhibitor, partial curve]. With `Clc1ccc(CN2CCSCC2)cc1Cl` the Potency was “inactive”. For `CC(C)(C)NC(=O)NC(=O)COc1ccc(Br)cc1Br`, the Potency was “inactive”. With `COc1cc(OC)cc(C(=O)Nc2cccc(N3CCCC3)c2)c1` the Potency was inconclusive [inhibitor, full curve, poor fit]. With `O=C(CSc1nnc(-c2ccncc2)n1Cc1ccco1)Nc1nc(-c2ccccc2)cs1` the Potency was active: 10 µM.

Reference: PubChem BioAssay AID651820 (National Center for Advancing Translational Sciences (NCATS), 2012)
Potency means the concentration at half of the fitted maximal effect; tags describe the fitted curve by direction and shape.
